Reference: PMC8558294, “Defects in the STIM1 SOARα2 domain affect multiple steps in the CRAC channel activation cascade” (Cellular and Molecular Life Sciences: CMLS, 2021)

Target: Orai1 V102A (human, UniProt Q96D31-1 1-301, V102A)
Assay: cell-based or functional assay

Sequence of Orai1 V102A (Q96D31 whole entry V102A): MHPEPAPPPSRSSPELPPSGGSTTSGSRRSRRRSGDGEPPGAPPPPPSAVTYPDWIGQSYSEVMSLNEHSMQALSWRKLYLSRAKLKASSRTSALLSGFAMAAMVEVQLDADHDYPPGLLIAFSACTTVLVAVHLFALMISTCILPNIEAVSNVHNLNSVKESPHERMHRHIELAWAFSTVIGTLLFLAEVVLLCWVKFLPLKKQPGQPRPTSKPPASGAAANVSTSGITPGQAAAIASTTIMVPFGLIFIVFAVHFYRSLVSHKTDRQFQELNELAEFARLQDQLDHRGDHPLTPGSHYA

| Vrev [mV] of Orai1 V102A currents, whole-cell patch clamp in HEK293 cells [mV] | Binder |
| --- | --- |
| 58.1 | STIM1 F394H, CFP/YFP-labeled (natural protein, human) LSHSHSEKATGTSSGANSEESTAAEFCRIDKPLCHSEDEKLSFEAVRNIHKLMDDDANGDVDVEESDEFLREDLNYHDPTVKHSTFHGEDKLISVEDLWKAWKSSEVYNWTVDEVVQWLITYVELPQYEETFRKLQLSGHAMPRLAVTNTTMTGTVLKMTDRSHRQKLQLKALDTVLFGPPLLTRHNHLKDFMLVVSIVIGVGGCWFAYI[not shown - about 450 residues with changes]RKKFPLKIFKKPLKK |
| 49.3 | STIM1 WT (wild-type), CFP/YFP-labeled (natural protein, human) LSHSHSEKATGTSSGANSEESTAAEFCRIDKPLCHSEDEKLSFEAVRNIHKLMDDDANGDVDVEESDEFLREDLNYHDPTVKHSTFHGEDKLISVEDLWKAWKSSEVYNWTVDEVVQWLITYVELPQYEETFRKLQLSGHAMPRLAVTNTTMTGTVLKMTDRSHRQKLQLKALDTVLFGPPLLTRHNHLKDFMLVVSIVIGVGGCWFAYI[not shown - about 450 residues]RKKFPLKIFKKPLKK |

Continued, binder first:

| Binder | Vrev [mV] of Orai1 V102A currents, whole-cell patch clamp in HEK293 cells [mV] |
| --- | --- |
| STIM1 F394A, CFP/YFP-labeled (natural protein, human) LSHSHSEKATGTSSGANSEESTAAEFCRIDKPLCHSEDEKLSFEAVRNIHKLMDDDANGDVDVEESDEFLREDLNYHDPTVKHSTFHGEDKLISVEDLWKAWKSSEVYNWTVDEVVQWLITYVELPQYEETFRKLQLSGHAMPRLAVTNTTMTGTVLKMTDRSHRQKLQLKALDTVLFGPPLLTRHNHLKDFMLVVSIVIGVGGCWFAYI[not shown - about 450 residues with changes]RKKFPLKIFKKPLKK | 46.7 |
| STIM1 F394D, CFP/YFP-labeled (natural protein, human) LSHSHSEKATGTSSGANSEESTAAEFCRIDKPLCHSEDEKLSFEAVRNIHKLMDDDANGDVDVEESDEFLREDLNYHDPTVKHSTFHGEDKLISVEDLWKAWKSSEVYNWTVDEVVQWLITYVELPQYEETFRKLQLSGHAMPRLAVTNTTMTGTVLKMTDRSHRQKLQLKALDTVLFGPPLLTRHNHLKDFMLVVSIVIGVGGCWFAYI[not shown - about 450 residues with changes]RKKFPLKIFKKPLKK | 27.4 |
